# Measured values published in PubChem BioAssay AID1745853 (National Center for Advancing Translational Sciences (NCATS), 2022).
# This is one part of the list. Further columns of the screen follow, without active or inactive calls.
# Legend:
# Assay in all cases: Primary Screen for Target Class Profiling of Small Molecule Inhibitors of Methyltransferases
# [1] = biological target: Glycine N-methyltransferase (Homo sapiens) (UniProt Q14749); details: purified enzyme, MTase-Glo SAH luminescence; measured here: GNMT inhibition; at 40 µM; stronger effect = lower value
# Outline: (§1)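 Each enzyme was reacted with SAM and its substrate, with compounds tested once at 40 uM; SAH formed was read by MTase-Glo luminescence.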
# [2] = biological target: Guanidinoacetate N-methyltransferase (Homo sapiens) (UniProt Q14353); details: purified enzyme, MTase-Glo SAH luminescence; measured here: GAMT inhibition; at 40 µM; stronger effect = lower value
# Outline: as §1
# [3] = biological target: Histamine N-methyltransferase (Homo sapiens) (UniProt P50135); details: purified enzyme, MTase-Glo SAH luminescence; measured here: HNMT inhibition; at 40 µM; stronger effect = lower value
# Outline: as §1
# [4] = biological target: Nicotinamide N-methyltransferase (Homo sapiens) (UniProt P40261); details: purified enzyme, MTase-Glo SAH luminescence; measured here: NNMT inhibition; at 40 µM; stronger effect = lower value
# Outline: as §1
# [5] = biological target: Phenylethanolamine N-methyltransferase (Homo sapiens) (UniProt P11086); details: purified enzyme, MTase-Glo SAH luminescence; measured here: PNMT inhibition; at 40 µM; stronger effect = lower value
# Outline: as §1
# On the % scale 0 is the no-effect control and ±100 the full control effect.
Compound,"activity change, negative = inhibition [1] [%]","activity change, negative = inhibition [2] [%]","activity change, negative = inhibition [3] [%]","activity change, negative = inhibition [4] [%]","activity change, negative = inhibition [5] [%]"
COC1C=C(C)C(O)(CO)C2(C)CCCC(C)(C)C12 (stereo not given),1.28,2.22,7.81,-13.8,-3.92
COc1ccc(NC(=O)Cn2c(=O)oc3cc(S(=O)(=O)NCc4ccccc4)ccc32)cc1OC,10.1,6.47,9.29,8.47,8.38
COc1cccc(CNC(=O)c2ccc3c(=O)nc4c(-c5cccc(C)c5)n[nH]n4c3c2)c1,-12.6,0,-2.63,-5.57,-6.55
Cc1cccc(CCNC(=O)CCCc2nnc3n4nc(C)nc4c4ccccc4n23)c1,0.679,3.02,9.28,13.8,1.13
CC1(C(=O)NC2CCCCC2)Cn2c(cc3sccc32)C(=O)N1Cc1ccc2c(c1)OCO2 (stereo not given),1.04,2.28,5.31,-4.99,2.16
COc1cc(C)c(C(=O)O[C@H]2[C@@H](O)[C@H](n3ccc(=O)[nH]c3=O)O[C@@H]2CO)c(OC)c1,4.29,-0.589,5.64,-9.85,-0.159
COc1ccc(OC)c(S(=O)(=O)N2CCN(S(=O)(=O)c3cc(OC)ccc3OC)CC2)c1,-8.99,0.735,-3.64,-5.24,-6.33
CCCC1c2ccc(C)n2CCN1C(=O)NCc1ccc(F)cc1 (stereo not given),-4.62,0.122,-10.1,-0.902,-8.59
COc1ccccc1CNC(=O)C1c2c(n(C)c3ccccc23)SCC(=O)N1c1cc(Cl)ccc1OC (stereo not given),13.2,2.66,7.64,9.26,10.8
O=C(NCCCc1ccccc1)c1ccc2c(=O)nc3c(-c4cccc(F)c4)n[nH]n3c2c1,-0.85,0,6.87,-4.46,-0.415
O=C(NC1CCCCCC1)c1ccc2c(c1)CC(=O)N2Cc1cccc(F)c1,-5.45,-5.3,-2.6,-5.61,-5.29
Cc1cc(C(F)(F)F)nc(CNc2cc(C3CC(O)C3)nc(N)n2)n1 (stereo not given),-0.798,-13.7,-2.94,-9.73,-7.23
Cc1ccc(Cn2c(=O)c3ccc(C(=O)NC(C)C)cc3n3c(=O)n(Cc4cccc(Cl)c4)nc23)cc1,7.79,0,8.68,14.7,11.6
Cc1noc(C)c1-c1cc2c(cc(C)n2CCN(C)C)c(Nc2ccncn2)n1,-71.3,-60.2,-82.8,-64.4,-51.2
COc1c(C)c(OCC=C(C)C)cc2c1COC2=O,0,-0.916,-1,-21.4,-6.17
CC1CCCC(NC(=O)C2(C)Cn3c(cc4sccc43)C(=O)N2C2CCCCCC2)C1C (stereo not given),2.44,0,4.06,-2.07,2.22
CC1CCN(S(=O)(=O)c2ccc3c(ccn3CC(=O)NCc3ccc(OC(C)C)cc3)c2)CC1,5.48,0.969,3.33,3.87,1.23
Cc1nn(C)c(C)c1S(=O)(=O)NCCc1noc(-c2cccnc2)n1,-2.52,0.649,0.986,-2.27,-2.81
CC(C)CCNC(=O)C1c2c(n(C)c3ccccc23)SCC(=O)N1c1ccccc1F (stereo not given),7.81,3.11,2.12,-2.75,3.96

Compound,"activity change, negative = inhibition [1] [%]","activity change, negative = inhibition [2] [%]","activity change, negative = inhibition [3] [%]","activity change, negative = inhibition [4] [%]","activity change, negative = inhibition [5] [%]"
Cc1nn(C)c(C)c1CCN(C)C(=O)C1CCN(C(=O)N2CC3CC(C2)[C@H]2CCCC(=O)N2C3)CC1 (stereo not given in full),-4.24,-5.96,-2.56,-9.19,0.892
CCCN1CCN(C(=O)c2ccc3c(c2)n(CC)c(=O)c2ccnn23)CC1,-8.12,-5.35,-35.8,-14.9,-1.37
COc1ccc(-c2ccn(CC[C@](C)(C(=O)NO)S(C)(=O)=O)c(=O)c2)c(F)c1,1.23,3.11,11.1,-8.11,6.11
COc1ccc(N2CCN(C(=O)c3cc4c(s3)CN(C3CCCC3)C4)CC2)cc1,-1.17,-0.782,-2.17,-2.58,10.1
CCc1ccc(S(=O)(=O)c2nnn3c2nc(N2CCC(C(N)=O)CC2)c2cc(Cl)ccc23)cc1,-23,3.59,-10.3,-10.4,-7.06
CC1CCC(NC(=O)C2(C)Cn3c(cc4occc43)C(=O)N2Cc2ccco2)CC1 (stereo not given),-14.9,-0.496,-5.89,-3.38,-8
COC(=O)COc1ccc2c(-c3ccccc3)cc(=O)oc2c1C,-5.27,-1.1,-4.08,-15.4,-17.1
Cc1ccc(S(=O)(=O)Nc2ccc3c(c2)CN(CCc2ccc(F)cc2)C(=O)C(C)O3)cc1F (stereo not given),-8.38,-12,-4.97,-24.4,-10.2
Cc1ccc(-n2ncc3c2CC(C)(C)CC3NS(=O)(=O)c2cn(C)cn2)cc1 (stereo not given),-9.2,-11.7,-4.89,-13.9,-7
c1ccc(-c2cc3c(cn2)NCCN(CC2CC2)C3)cc1,-17.6,-13.9,-72.8,-31.3,-31.5
COc1ccccc1OCCNCC(O)CCOc1cccc2[nH]c3ccccc3c12 (stereo not given),-3.01,5.44,-8.38,-16,-91.6
O=c1c2ccccc2n2c(=O)n(Cc3ccccc3)nc2n1Cc1ccccc1,2.62,4.59,7.41,4.31,2.14
COc1cc(N2CCC(N3CCN(C)CC3)CC2)ccc1Nc1ncc(Cl)c(Nc2ccccc2S(=O)(=O)C(C)C)n1,-56.8,6.35,-54.6,-6.23,-5.61
CCc1ccc(S(=O)(=O)c2nnn3c2nc(NC(C)C)c2cc(Cl)ccc23)cc1,-3.05,0.041,-2.62,-11.2,-3.71
CC1(C)CC[C@]2(C(=O)O)[C@H](O)C[C@]3(C)C(=CCC4[C@@]5(C)CC[C@H](O[C@@H]6O[C@H](CO[C@@H]7OC[C@H](O)[C@H](O)[C@H]7O[C@@H]7OC[C@H](O)[C@H](O)[C@H]7O)[C@@H](O)[C@H](O)[C@H]6O)C(C)(C)C5CC[C@]43C)[C@@H]2C1 (stereo not given in full),4.03,3.25,10.3,-10.6,5.8
Cn1ccc(C(=O)NCc2nnc3n2C(C(=O)NCC2CC2)CC3)n1 (stereo not given),3.43,3.7,1.41,1.28,5.13
Cc1ccccc1[C@H]1C[C@@H](O)[C@@H](O)[C@@H]1NC(=O)c1c(-c2ccccc2)noc1C,-0.128,-3.35,-3.07,-0.112,2.51
CCN1C(=O)c2cc(C(=O)NC3CCN(Cc4ccccc4)CC3)nn2CC1(C)C(=O)NC1CCCC1 (stereo not given),6.78,0,-3.72,8.64,7.41
